# PubChem BioAssay AID1768 (National Center for Advancing Translational Sciences (NCATS), 2009)
# “And” between values parts separate entries of the source, which are not always exact repeats. Equal values may be shown once. The campaign covered roughly 270,000 compounds. About 620 (0.23%) were called active. Inconclusive means that the source gave no clear call. Such entries were picked first, then a sample of the others. The call rests on the fitted dose curve; in most records, active means well fitted inhibition curve with a large enough effect in the polarisation, with a control signal flat (not every such curve was filed as active); inconclusive means small, poorly fitted or top-dose-only effect, or effect the other way, or a change in a side signal; inactive means no such curve, though single readings can be large or run the other way; the % refers to the polarisation. A potency beside an inconclusive call is a rough fit, not a confirmed value. “Side channel” marks fits to a control or component signal instead of the main read-out.
# Target: Menin (Homo sapiens) (UniProt O00255)
# Assay: qHTS Assay for Inhibitors Targeting the Menin-MLL Interaction in MLL Related Leukemias: Competition With Texas Red Labeled MLL-derived Mutant Peptide; on FP activity change, negative = inhibition: % of control where 0% means no effect
# Settings: fluorescence polarization; FP activity change, negative = inhibition: at 61.6 µM (top of the series)
# Potency means the concentration at half of the fitted maximal effect; tags describe the fitted curve by direction and shape or compound fluorescence and quenching.
# Sequence of UniProt O00255 (O00255 whole entry, looked up): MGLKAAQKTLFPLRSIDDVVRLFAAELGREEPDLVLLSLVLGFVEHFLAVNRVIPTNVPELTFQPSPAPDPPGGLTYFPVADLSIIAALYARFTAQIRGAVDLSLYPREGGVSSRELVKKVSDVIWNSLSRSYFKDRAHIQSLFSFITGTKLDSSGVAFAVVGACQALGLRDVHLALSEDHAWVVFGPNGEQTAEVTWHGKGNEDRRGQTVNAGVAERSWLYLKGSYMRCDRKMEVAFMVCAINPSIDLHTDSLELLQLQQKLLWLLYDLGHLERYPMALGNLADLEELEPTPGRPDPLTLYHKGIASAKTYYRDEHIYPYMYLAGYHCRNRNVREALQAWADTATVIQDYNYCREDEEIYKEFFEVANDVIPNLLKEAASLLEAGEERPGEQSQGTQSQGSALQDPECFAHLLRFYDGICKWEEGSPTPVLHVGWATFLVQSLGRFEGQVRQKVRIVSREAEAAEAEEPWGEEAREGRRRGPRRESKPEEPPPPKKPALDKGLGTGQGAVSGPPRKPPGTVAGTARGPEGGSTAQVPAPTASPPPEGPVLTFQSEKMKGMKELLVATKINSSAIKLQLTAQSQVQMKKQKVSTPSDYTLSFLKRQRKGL
Compound,Potency,"FP activity change, negative = inhibition"
Cc1cc(O)ccc1N/C=C1\CCCC1=O,"inconclusive: 12.6 µM [fluorescent, side channel, partial curve]",
O=C(Nc1nccs1)c1ccc(-c2ccc(Cl)cc2Cl)o1,"inconclusive: 3.55 µM [quencher, side channel, partial curve]",
CCCCCCCCCCCCCC[C@@H](O)[C@@H](O)[C@@H](N)CO,,inactive: -15.7%
COc1ccc(Cc2nnc(NC(=O)Nc3ccccc3F)s2)cc1OC,"inconclusive: 39.8 µM [inhibitor, single point]",
Cc1ccc(/C=N/NC(=O)C2CC(=O)N(c3ccccc3)C2)s1 (configuration not stated),,inactive: -4.65%
CCCCSc1nnc(CCCCCNC(=O)OC(C)(C)C)o1,"inconclusive: 5.01 µM [fluorescent, side channel, partial curve]",
CCCCN(C)CCNC(=O)c1cc2c(=O)[nH]c3ccccc3c2n1C,"inconclusive: 0.891 µM [inhibitor, full curve, poor fit]",
O=C(Nc1ccc(-c2nc3ccccc3o2)c(O)c1)c1cc(-n2cnnc2)ccc1Cl,"inconclusive: 15.8 µM [quencher, side channel, partial curve]",
O=C(COC(=O)C1CCCCC1)Nc1ccc([N+](=O)[O-])cc1,"inconclusive: 22.4 µM [quencher, side channel, partial curve]",
Cc1ccc(CNc2nc3c([nH]2)c(=O)n(C)c(=O)n3C)cc1,,inactive: 1.28%
COc1ccc(Cn2c(SCc3cc(C)ccc3C)nc3cc(OC)c(OC)cc3c2=N)cc1,"inconclusive: 4.47 µM [inhibitor, partial curve]",
COc1cc(OC)c(NS(=O)(=O)c2cc(Br)cnc2N)cc1Cl,"inconclusive: 22.4 µM [quencher, side channel, partial curve]",
NC(=O)C1CCN(c2oc(/C=C/c3ccc(F)cc3)nc2S(=O)(=O)c2ccccc2)CC1,"inconclusive: 20 µM [quencher, side channel, single point]",
CCOC(=O)c1cnn(-c2ccc(Cl)cc2)c1C1CCN(C(=O)OC(C)(C)C)CC1,"inconclusive: 5.62 µM [fluorescent, side channel, partial curve]",
O=c1oc2ccccc2cc1-c1csc(Nc2ccc(O)cc2)n1,"inconclusive: 11.2 µM [quencher, side channel, partial curve]",
COC(=O)C1(C)CCc2cc(OC)ccc2C1=O (configuration not stated),,inactive: 15.8%

Compound,Potency,"FP activity change, negative = inhibition"
O=C(N/N=C/c1cc(Br)ccc1O)C(=O)Nc1ccccc1OC(F)(F)C(F)F,"inconclusive: 10 µM [quencher, side channel, partial curve]",
COc1ccc(-n2nc(C(=O)NCC(=O)N3CCN(c4ccccc4OC)CC3)c3ccccc3c2=O)c(OC)c1,,inactive: 4.26%
c1ccc(N2CCN(c3nc(NCc4ccco4)c4ccccc4n3)CC2)cc1,,inactive: 20.9%
Oc1ccc(/C=N/n2c3ccccc3c3ccccc32)cc1,"inconclusive: 15.8 µM [quencher, side channel, partial curve]",
CC(=O)Nc1ccc(S(=O)(=O)Nc2nccs2)cc1,"inconclusive: 3.16 µM [inhibitor, partial curve]",
C[C@@H](C(=O)Nc1ccc2ccccc2c1)[C@H]1C[C@]1(C)[C@H](NS(=O)(=O)c1ccc(-c2ccccc2)cc1)c1ccccc1,"inconclusive: 3.16 µM [inhibitor, partial curve] and inconclusive: 3.98 µM [inhibitor, full curve]",
COc1ccc(Br)cc1C(=O)Nc1cccc(NC(=O)c2ccco2)c1,"inconclusive: 28.2 µM [quencher, side channel, single point]",
CC1CCN(c2nc3nonc3nc2Nc2ccc(F)cc2)CC1,"inconclusive: 12.6 µM [quencher, side channel, partial curve]",
O=C(CCN1C(=O)/C(=C/c2ccccc2Cl)SC1=S)NC1C=CS(=O)(=O)C1 (configuration not stated),"inconclusive: 12.6 µM [quencher, side channel, partial curve]",
O=C1c2ccccc2C(=O)c2cc(S(=O)(=O)Nc3ccccc3)ccc21,"inconclusive: 35.5 µM [quencher, side channel, single point]",
CCc1cccc(NC(=O)C2CCN(S(=O)(=O)c3cccs3)CC2)c1,"inconclusive: 31.6 µM [quencher, side channel, single point]",
COc1cc(CN2CCCC(C(=O)Nc3ccccc3Oc3cccnc3)C2)ccc1F (configuration not stated),"inconclusive: 0.355 µM [inhibitor, full curve]",
CC1CC(C)CN(C(=O)C2CCCN(c3ncnc4c3nc3n4CCCCC3)C2)C1 (configuration not stated),"inconclusive: 2.82 µM [fluorescent, side channel, full curve, poor fit]",
COc1ccc(/C=N/NC(=O)c2ccn[nH]2)cc1COc1ccc(Cl)cc1Cl,"inconclusive: 8.91 µM [quencher, side channel, partial curve]",
COC(=O)C1=C[C@@H](C(=O)OC)[C@@H]2C3=C(C(=O)[C@@]2(C)NC(=O)c2ccccc2)[C@H](c2ccccc2)[C@@H]2C(=O)NC(=O)[C@@H]2[C@@H]3C1,"inconclusive: 35.5 µM [inhibitor, single point]",
CSCC[C@H](NC(=O)[C@H](CCC(N)=O)NC(=O)[C@H](CCCCN)NC(=O)[C@H](CCCNC(=N)N)NC(=O)[C@H](Cc1ccc(O)cc1)NC(=O)[C@H](CCCNC(=N)N)NC(=O)[C@H](CO)NC(=O)[C@H](Cc1ccc(O)cc1)NC(=O)[C@H](CO)NC(=O)[C@H](CC(=O)O)NC(=O)[C@@H](NC(=O)[C@@H](N)Cc1ccccc1)[C@@H](C)O)C(=O)N[C@@H](C)C(=O)N[C@H](C(=O)N[C@@H](CCCCN)C(=O)N[C@@H](CCCCN)C(=O)N[C@@H](Cc1ccc(O)cc1)C(=O)N[C@@H](CC(C)C)C(=O)N[C@@H](C)C(=O)N[C@@H](C)C(=O)N[C@H](C(=O)N[C@@H](CC(C)C)C(=O)NCC(=O)N[C@@H](CCCCN)C(=O)N[C@@H](CCCNC(=N)N)C(=O)N[C@@H](Cc1ccc(O)cc1)C(=O)N[C@@H](CCCCN)C(=O)N[C@@H](CCC(N)=O)C(=O)N[C@@H](CCCNC(=N)N)C(=O)N[C@H](C(=O)N[C@@H](CCCCN)C(=O)N[C@@H](CC(N)=O)C(=O)N[C@@H](CCCCN)C(N)=O)C(C)C)C(C)C)C(C)C,,inactive: -11.7%
